Among all 280,000 compounds or so, about 100 (0.036%) were called active. Inconclusive results, whose numbers are uncertain, are shown with a selection of clear calls. The call rests on the fitted dose curve; in most records, active means well fitted inhibition curve with a large enough effect in the signal ratio, with a control signal flat (not every such curve was filed as active); inconclusive means small, poorly fitted or top-dose-only effect, or effect the other way, or a change in a side signal; inactive means no such curve, though single readings can be large or run the other way; the % refers to the signal ratio. A potency beside an inconclusive call is a rough fit, not a confirmed value. “Side channel” marks fits to a control or component signal instead of the main read-out.
Target: Muscleblind-like protein 1 (Homo sapiens) (UniProt Q9NR56)
UniProt Q9NR56, sequence (Q9NR56 whole entry, looked up): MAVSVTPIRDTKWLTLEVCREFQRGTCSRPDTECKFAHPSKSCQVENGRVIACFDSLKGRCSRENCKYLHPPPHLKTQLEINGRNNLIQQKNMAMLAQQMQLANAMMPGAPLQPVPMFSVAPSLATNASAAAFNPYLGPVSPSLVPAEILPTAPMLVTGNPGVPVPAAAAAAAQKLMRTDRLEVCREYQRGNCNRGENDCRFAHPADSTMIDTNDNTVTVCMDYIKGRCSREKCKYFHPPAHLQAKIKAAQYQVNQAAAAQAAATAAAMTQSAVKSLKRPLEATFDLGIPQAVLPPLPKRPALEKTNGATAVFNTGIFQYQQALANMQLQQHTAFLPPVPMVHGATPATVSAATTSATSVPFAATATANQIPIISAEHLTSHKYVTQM
Assay: qHTS Assay for Inhibitors of MBNL1-poly(CUG) RNA binding
Details: TR-FRET MBNL1-His/biotin-(CUG)12 binding, 665/545 ratio; series mostly up to 57.5 µM
Summary of the method: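 Ratiometric TR-FRET (665 over 545 nm, excitation 340 nm) tracks disruption of MBNL1-His/biotin-(CUG)12 complex after 60 min at room temperature, with compounds at 92 nM to 58 uM final.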
Potency means the concentration at half of the fitted maximal effect; tags describe the fitted curve by direction and shape or compound fluorescence and quenching.

Structure (SMILES)	Potency
Cc1cc(-n2c(=O)c(C#N)cc3c(=O)n4ccccc4nc32)no1	inconclusive: 4.47 µM [quencher, side channel, partial curve]
Cc1nn(C)cc1C(C)NC(=O)c1cc(COc2c(F)cccc2F)on1 (stereo unspecified)	inactive
CC(=O)Nc1ccc(Nc2ccc([N+](=O)[O-])cn2)cc1	inconclusive: 10 µM [quencher, side channel, partial curve]
Cc1ccsc1/C=C/c1n[nH]c(=O)c(C#N)c1C	inconclusive: 15.8 µM [quencher, side channel, partial curve]
CCOC(=O)c1cc(-c2ccc(/C=N\n3cnnc3)o2)ccc1Cl	inconclusive: 11.2 µM [quencher, side channel, partial curve]
COc1ccc(OC)c(C(=O)NC(CC(N)=O)c2ccc(NCC3CC3)c([N+](=O)[O-])c2)c1 (stereo unspecified)	inconclusive: 15.8 µM [quencher, side channel, partial curve]
O=c1c2ccccc2nc(SCc2cccc(F)c2)n1C1CCCC1	inconclusive: 0.1 µM [fluorescent, side channel, full curve]
CCOc1cc(NCCN2CCOCC2)c([N+](=O)[O-])cc1OCC	inconclusive: 7.08 µM [quencher, side channel, partial curve]
Cc1ccc(CNC(=O)CCNS(=O)(=O)c2cccc3nonc23)cc1	inconclusive: 25.1 µM [quencher, side channel, partial curve]
Cc1cc(C)nc(NC(=O)c2ccc(Br)s2)n1	inactive
CCOc1cc2c(C#N)c(N3CCCCC3)nc(N)c2c(N)n1	inconclusive: 22.4 µM [quencher, side channel, partial curve]
CC1(OC(=O)C2CCCC2)C(=O)C=C2C=C(c3ccsc3)N(C3CC3)C=C2C1=O (stereo unspecified)	inconclusive: 12.6 µM [quencher, side channel, partial curve]
CC1=NNC(=O)C1CCC(=O)N/N=C\c1ccccc1[N+](=O)[O-] (stereo unspecified)	inconclusive: 14.1 µM [quencher, side channel, partial curve]
COc1cc(/C=N/NC(=O)c2sc(N)c(C#N)c2C)cc(Br)c1O	inconclusive: 35.5 µM [quencher, side channel, single point]
CCOc1ccc2nc(NS(=O)(=O)Cc3ccccc3)sc2c1	inactive
Cc1cccc(-c2nc3ccccc3c(=O)n2NC(=O)/C=C/c2ccc([N+](=O)[O-])cc2)c1	inconclusive: 39.8 µM [quencher, side channel, single point]

Reference: PubChem BioAssay AID2675 (National Center for Advancing Translational Sciences (NCATS), 2010)
